Cytotoxicity call and growth inhibition call data for 27 compounds are collected here from the antibiotic and cytotoxicity screens of Wong et al. (2023).

In one test the test system is HSkMC. As to the kind of experiment: cytotoxicity call (relative viability < 0.9). Particulars: 10 µM.
Another test has as its system HepG2. As to the kind of experiment: cytotoxicity call (relative viability < 0.9). Conditions: 10 µM.
Another test deals with S. aureus RN4220. As to the kind of experiment: growth inhibition call (relative growth <= 0.2). Conditions: 50 µM.

Some of the results follow.

In the case of `CO[C@H]1CN(C)C(=O)c2ccc(NS(=O)(=O)c3cn(C)cn3)cc2OC[C@@H](C)N(CC2CC2)C[C@H]1C`, the cytotoxicity call in the test with HSkMC and in the test on HepG2 was “inactive” throughout. Moreover, in the test with S. aureus RN4220, the growth inhibition call was “inactive”.
Regarding `C[C@@H]1CN([C@H](C)CO)S(=O)(=O)c2ccc(C#Cc3ccccc3)cc2O[C@@H]1CN(C)C(=O)CN(C)C`, in the test on HSkMC, the cytotoxicity call is “inactive”. The cytotoxicity call with HepG2 was “active”. In the test on S. aureus RN4220, the growth inhibition call is “active”.
`O=C(C[C@H]1CC[C@H]2[C@@H](COC[C@H](O)CN2S(=O)(=O)c2cccc(Cl)c2)O1)NCc1ccncn1`: the cytotoxicity call with HSkMC and in the test on HepG2 was “inactive” throughout. In addition, the growth inhibition call in the test on S. aureus RN4220 is “inactive”.
`C[C@@H]1CCCCO[C@H](CN(C)C(=O)Nc2ccc3c(c2)OCO3)[C@@H](C)CN([C@@H](C)CO)C(=O)c2cc(NC(=O)c3ccccc3)ccc2O1`: the cytotoxicity call with HSkMC and with HepG2 was “inactive” each time. For the same compound, the growth inhibition call with S. aureus RN4220 was “inactive”.
With `Nc1nnc(N[C@H]2CCCCNC2=O)[nH]1`, the cytotoxicity call in the test with HSkMC and with HepG2 was “inactive” in each case. Besides, in the test on S. aureus RN4220, the growth inhibition call is “inactive”.
On to `C[C@@H]1CN([C@@H](C)CO)C(=O)c2cccc(NC(=O)C3CCOCC3)c2O[C@@H]1CN(C)Cc1ccc2c(c1)OCO2`, for which the cytotoxicity call in the test with HSkMC and in the test with HepG2 was “inactive” throughout. Moreover, in the test with S. aureus RN4220, the growth inhibition call was “inactive”.
`COc1ccc(S(=O)(=O)N(C)C[C@@H]2Oc3ccc(NC(=O)C4CC4)cc3C(=O)N([C@H](C)CO)C[C@H]2C)cc1`: the cytotoxicity call in the test on HSkMC and with HepG2 was “inactive” throughout. In addition, in the test with S. aureus RN4220, the growth inhibition call was “inactive”.
As for `C[C@@H]1CN([C@H](C)CO)C(=O)c2cc(NS(C)(=O)=O)ccc2O[C@@H]1CN(C)C(=O)NC1CCCCC1`, the cytotoxicity call with HSkMC and in the test on HepG2 was “inactive” in each case. The growth inhibition call in the test on S. aureus RN4220 is “inactive”.
`COc1ccc(CN(CCN(C)C)c2ccccn2)cc1.O=C(O)C=CC(=O)O`: the cytotoxicity call in the test on HSkMC and in the test with HepG2 was “inactive” each time. For the same compound, the growth inhibition call in the test with S. aureus RN4220 is “inactive”.
Consider `CSC1=NCCN1`, for which the cytotoxicity call with HSkMC and with HepG2 was “inactive” in each case. In the test with S. aureus RN4220, the growth inhibition call was “inactive”.
On to `COc1ccc(NC(=O)N(C)C[C@@H]2Oc3c(NC(=O)c4cnccn4)cccc3C(=O)N([C@@H](C)CO)C[C@@H]2C)cc1`, for which the cytotoxicity call in the test with HSkMC and in the test on HepG2 was “inactive” throughout. For the same compound, in the test on S. aureus RN4220, the growth inhibition call is “inactive”.
Take `Cc1noc(C)c1S(=O)(=O)N(C)C[C@H]1Oc2c(NC(=O)C3CCOCC3)cccc2C(=O)N([C@@H](C)CO)C[C@H]1C`: the cytotoxicity call in the test on HSkMC and in the test with HepG2 was “inactive” each time. Moreover, in the test with S. aureus RN4220, the growth inhibition call is “inactive”.
Take `COc1ccc(C#Cc2ccc([C@@H]3[C@H](CO)N4CCCCN(S(=O)(=O)c5cn(C)cn5)C[C@@H]34)cc2)cc1`: the cytotoxicity call in the test on HSkMC was “inactive”. Further, the cytotoxicity call with HepG2 was “active”. Also, in the test on S. aureus RN4220, the growth inhibition call is “inactive”.
For the compound `Cn1nc(C#N)c2c1CN(S(C)(=O)=O)CCC2`, the cytotoxicity call in the test with HSkMC and in the test with HepG2 was “inactive” each time. For the same compound, the growth inhibition call in the test with S. aureus RN4220 was “inactive”.
As for `C[C@@H]1CN([C@@H](C)CO)S(=O)(=O)c2ccc(C#CCC3CCCC3)cc2O[C@H]1CN(C)C(=O)CN(C)C`, the cytotoxicity call with HSkMC and in the test on HepG2 was “inactive” in each case. Also, in the test with S. aureus RN4220, the growth inhibition call was “inactive”.
Consider `C[C@@H]1CN([C@H](C)CO)S(=O)(=O)c2ccc(Br)cc2O[C@@H]1CN(C)S(=O)(=O)c1ccccc1`, for which the cytotoxicity call in the test on HSkMC and in the test on HepG2 was “inactive” throughout. Besides, in the test with S. aureus RN4220, the growth inhibition call is “inactive”.
On to `Cc1noc(C)c1S(=O)(=O)N(C)C[C@H]1Oc2ccc(NC(=O)CCC(F)(F)F)cc2CC(=O)N([C@@H](C)CO)C[C@H]1C`, for which the cytotoxicity call in the test with HSkMC and in the test with HepG2 was “inactive” throughout. Moreover, in the test on S. aureus RN4220, the growth inhibition call is “inactive”.
As for `S=C1NCN(CCc2ccccc2)CN1`, the cytotoxicity call in the test with HSkMC and in the test with HepG2 was “inactive” each time. The growth inhibition call with S. aureus RN4220 is “inactive”.
With `Cc1cc(C(=O)Nc2cccc3c2O[C@H](CN(C)S(=O)(=O)c2ccc(F)cc2)[C@H](C)CN([C@@H](C)CO)C3=O)n(C)n1`, the cytotoxicity call with HSkMC and in the test on HepG2 was “inactive” in each case. Further, the growth inhibition call in the test with S. aureus RN4220 is “inactive”.
As to `C[C@H](CO)N1C[C@H](C)[C@@H](CN(C)S(=O)(=O)c2cccc(C#N)c2)OCc2cn(nn2)CCCC1=O`, the cytotoxicity call with HSkMC and in the test on HepG2 was “inactive” throughout. For the same compound, the growth inhibition call with S. aureus RN4220 was “inactive”.
For the compound `C[C@@H]1CN([C@@H](C)CO)C(=O)c2cc(NC(=O)Cn3cnnn3)ccc2O[C@@H]1CN(C)Cc1ccc2c(c1)OCO2`, the cytotoxicity call in the test with HSkMC and in the test on HepG2 was “inactive” each time. Also, the growth inhibition call with S. aureus RN4220 is “inactive”.
With `C[C@H]1CN([C@@H](C)CO)C(=O)c2cc(-c3cccc(C(=O)N(C)C)c3)cnc2O[C@@H]1CN(C)S(=O)(=O)c1cccc(F)c1`, the cytotoxicity call in the test on HSkMC and in the test with HepG2 was “inactive” in each case. Moreover, in the test with S. aureus RN4220, the growth inhibition call is “inactive”.
For the compound `CCCC#Cc1ccc2c(c1)O[C@H](CN(C)S(=O)(=O)c1cccc(F)c1)[C@H](C)CN([C@@H](C)CO)S2(=O)=O`, the cytotoxicity call in the test on HSkMC and in the test with HepG2 was “inactive” each time. The growth inhibition call in the test with S. aureus RN4220 is “inactive”.
For `NCC1OC(OC2C(N)CC(N)C(OC3OC(CO)C(O)C(N)C3O)C2O)C(O)C(O)C1O.O=S(=O)(O)O` (stereo unspecified), the cytotoxicity call in the test on HSkMC and in the test with HepG2 was “inactive” throughout. In the test on S. aureus RN4220, the growth inhibition call was “inactive”.
For `C[C@H]1CN([C@@H](C)CO)C(=O)c2cccc(NC(=O)NC3CCCCC3)c2O[C@H]1CN(C)S(C)(=O)=O`, the cytotoxicity call in the test on HSkMC and in the test on HepG2 was “inactive” in each case. The growth inhibition call with S. aureus RN4220 was “inactive”.
Regarding `C=CCOC(=O)[C@@H]1[C@H]2C(=O)O[C@H](c3ccccc3)[C@H](c3ccccc3)N2[C@H](c2ccc(OCCOC(=O)NCCCCCC(=O)NO)cc2)[C@]12C(=O)Nc1ccc(I)cc12`, the cytotoxicity call in the test on HSkMC and in the test with HepG2 was “inactive” in each case. Besides, in the test with S. aureus RN4220, the growth inhibition call was “inactive”.
`COc1cc(N2CCC(N(C)C)CC2)ccc1Nc1ncc(Cl)c(Nc2ccccc2P(C)(C)=O)n1`: the cytotoxicity call in the test on HSkMC (human skeletal muscle cells) and in the test with HepG2 was “active” throughout. Besides, the growth inhibition call with S. aureus RN4220 is “inactive”.
